# The supplement of paper PMC12632987
# Over roughly 1,800 sequences, “median log2 fold change of GCK-ALFA target abundance (FLAG IP / Myc IP barcode read proportion)” has its median near 0.14; the lowest 2% begin near -0.84. Some of the results follow.
# T1: TRAF2, Q12933
# T1 chain: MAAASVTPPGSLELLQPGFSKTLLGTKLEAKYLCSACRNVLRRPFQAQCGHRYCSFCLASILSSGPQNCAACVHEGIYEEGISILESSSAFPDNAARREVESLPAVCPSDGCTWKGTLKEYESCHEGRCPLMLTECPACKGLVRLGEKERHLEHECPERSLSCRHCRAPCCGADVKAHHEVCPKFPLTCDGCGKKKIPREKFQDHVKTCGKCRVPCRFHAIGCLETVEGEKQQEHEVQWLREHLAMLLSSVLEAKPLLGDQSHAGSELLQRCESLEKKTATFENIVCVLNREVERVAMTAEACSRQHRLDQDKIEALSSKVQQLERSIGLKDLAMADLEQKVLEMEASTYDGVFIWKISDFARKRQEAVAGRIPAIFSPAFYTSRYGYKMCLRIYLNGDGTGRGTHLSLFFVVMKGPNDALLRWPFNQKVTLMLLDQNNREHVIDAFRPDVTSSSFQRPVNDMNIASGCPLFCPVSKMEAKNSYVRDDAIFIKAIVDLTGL
# B1: traf2_out_11_169_832 (protein)
# chain: EEAEKNRKINDKALELEDKAKEELKKYALEAAKKEGLDVEEVEKIFEENKGKSLSAIAAALIEWARSKGAEKFAAAILAKYEELKDKINKEMTKFIKELE
# B2: traf2_out_20_3_2055 (protein)
# chain: EELLKKIEELLKKAEELLKEIEKLADPETAKRLREAWEEVLKAKKEGLEEFLIAVSRLRRLALELAEEARREGREELAALLEELADTYGRIANLVYKLIE
# B3: traf2_out_17_162_1508 (protein)
# chain: SPIEEFRKRAEEELERLEEELKRLEEKMEKLEEMSKEEISDLLVEASELRRRARELAEEIRKHKEELGEEEAEELIERAEEIAERLQRIANKAYKELLKK
# B4: traf2_out_13_95_1122 (protein)
# chain: SAEVAAEINKIADEMEERRLAILEELLKIAKEKGIAEEEIQAILEFAKHGTINEVIHRLKELAKKYPEMKEELEAAIAELEAIRREAGRKVAEILKKEKE
# B5: traf2_out_5_86_2373 (protein)
# chain: EEAKRDANHDRLVATWLAAEKKVYAKAKELGLNASQFGEVLEEMAKMIDPEKREAALARVRALAKEAGLSEEQTAELVALLTEQAEEIRAVLDAIRAESA
# B6: traf2_out_17_162_1482 (protein)
# chain: GELKERLEELEKELEELKKRLEELEKKLEKLDEMSKEELTDLLVEASELRRRALELAEEIRELEPEIGKEKAEKLRKEALEIAERLQRIANKIYKKLEEK
# B7: traf2_out_17_162_1549 (protein)
# chain: GELEERKKELEERLKELEKKAKELEKKLPDLPKLSKEELTDLLVEASEARREARLLAEEIRELEEEIGEEEAEELRERAEEVAEKLQRIANEIYKELEKK
# B8: traf2_out_17_162_1556 (protein)
# chain: EELEEELEELEEELEELEEELERLKEKLKNLETLSKEELTDLLVEASEKRREALELALRLEELREEIGEERAEELIERAEELAEEFQRIANEIYKELLKK
# B9: traf2_out_18_3_1925 (protein)
# chain: SEEELKKVSERIDEIIDEAEAKAREALDRIRARHPEAAAEVDRLEALLDAGAGPFGILEELAELARRLGDEELAKELEEFLKKKRKELSKLVEEYLELRK
# B10: traf2_out_17_178_1740 (protein)
# chain: SKEEIRKKIAELADEKLDVAREAADELRAIAEAEGILTPELRARLDLVARTSNRYAFEEVANELIALSPDKEKVQALLEETTAKLTELDKKIQAAVDKLE
# B11: traf2_out_11_104_636 (protein)
# chain: LTREQAREFNDFAMEKEDEAKAVAAALAARLRALGEDEAAARVEAALAHPGAGISTFKNLLEDLRPTLSPEAAAAADEAIEKLEELQKEVSEKLNELEKK
# B12: traf2_out_11_155_756 (protein)
# chain: EEKLKLLNEMNNKVNDVFDEAREKALELAKEAAEKHPEHKEEIEKKIEENKHFSAKSFILSLIRLFKELGLEEEAEKLEKLLEETQKKANEIVIETEKKL
# B13: traf2_out_11_169_831 (protein)
# chain: EEAEKNRKINEKALELEDEAKEKLKEYALKAAKEEGLDEAEVKKIFEANKGKSLSAIAAALIAWAKSLGKEEFAEAILKKYEELKEEINKKMTAFIKSLE
# B14: traf2_out_1_158_921 (protein)
# chain: DTKRKLMLGVVKLITQDAVDSARENGDEETAEALRRFGEEVIKIVEELLIEKNESVEKVIEAIEKLTEEAMKELDPETAEAVRRMGRQIISGLRQVDKLM
# B15: traf2_out_20_3_2096 (protein)
# chain: EELKKELEKALEEAEKLIKEAIKLADEETAKKLKELLKKLKEAKELPLDDQLVELSEVRRELLELAEKAKKEGKEELAKILEEAADKINRAMNLAYKIIE
# B16: traf2_out_18_167_1841 (protein)
# chain: EEEKRKRREELMDRLVDLSEVKRAARRALLALETDPSAVPAELAALEEAAKKVPELQPLVDAAKAAYAAGDREGLRAELEALIAEAQKLMNEVMKELEAL
# B17: traf2_out_20_3_2207 (protein)
# chain: SELEEELEKELEKAIKLLEEAKKLADPETAKVLDELIKRLKESRKLSYEDRLVVLSEIRAEVLRLAQEARAAGDEELAKVLEEAAEAIQRAMNLVYKIIE
# B18: traf2_out_11_104_654 (protein)
# chain: LTREQAREFNDFAMEARDRAKEIARETAEELRRRGHEEEAARVEAALNDPGAGISTFRNLLEELLPQLDEESQKVAREAIERLRELQKEVSDKLNELLAK
# B19: traf2_out_17_162_1485 (protein)
# chain: AALEAKLKALQAELKALQKKLAELEKKLENLDKLSKEELTDLLVEVSELKRKARELAVQLEELQKQTGKPELKTLIQEARDLAEKLQKIANIIYKKLEEK
# B20: traf2_out_17_162_1639 (protein)
# chain: SEIERRLEELERRLEELERRARELEELAKRVEELSREELSDLIVEASEVIREARELIQELEELKDELDPERYEELTRRAEEIIRRAQRVAQRFLDALEAK
# B21: traf2_out_1_27_996 (protein)
# chain: SDEEFRARLQRLDREIAAADPETALRLVAEGMREAIERGLGDAGILAIIAVSSVSDPELAERILEVAREVMEEEGVSEEDIERILERARNEKRRLDEALA
# B22: traf2_out_20_3_2216 (protein)
# chain: EELKKKVLEKLEEIEKLLEEAKPLLKPEDYKELKKLLEEAKKALEEDLTDALVYLSELRRKALRLAQEAKAAGNEKLAELLEKMAELANKAAGLVLKMIE
# B23: traf2_out_19_16_1969 (protein)
# chain: MKEELEKIKKELEEIEKEVRELEKYFRENKETLTREELADLLVELSELKRKAQEIKEKLETLKGVDEEEKEKLIKRAERIIEEAQRLMNEVVDRYLELLK
# B24: traf2_out_11_155_716 (protein)
# chain: EKELKLNQEFTDKVSEIADEAEAKLEEIIARVEKEDPEVAAELRAMMEKHKDSGITTKLLEAQRILEKAGYEEEAKEVKELLEEYQKKANEIWQEYEKKL
# B25: traf2_out_12_187_966 (protein)
# chain: SVQDELIAAANAALKAALKALEKEAPKRERFKEFLERLKEVAELLKKHPEVAADAAVAASLVLRAVRLFEEGLPEEEIERAAEEAEEELEELLEELKALE
# B26: traf2_out_11_169_801 (protein)
# chain: EEKEKNRKINDKALELNDKAKEELLKHALKLAKEAGLDEAEVKAIYEKHKNHSLSAVASALIDYFRSKGAEEEAAAVEEKYDELKEKINKEMTAFIKELE
# B27: traf2_out_20_154_1996 (protein)
# chain: PTDEEIDAVSDELVDASAKRRAALVAIEMLRNPERAAEILAAARAHYANDAVFQAALAEEEARIAAGATLEEFEALAEEYAKKAQELGDKLEELLEKRRK
# B28: traf2_out_11_155_710 (protein)
# chain: EEKLKINQELVDKVQEIADEALAELNKLIDEVAKEDPEVAAQLRAVLDASKDAGITTKLRLAIAVLKAAGREEEAAKVEKILEDYQKKANEIAKEAEEKL
# B29: traf2_out_11_155_708 (protein)
# chain: EEKLKLYQELVDANMAVADEALARLEALIDEVAARDPAVAAELRAVLEANRDAGYRTKLLLAERVLRAAGYEEEAARVEAILEEAQRRMNEIAKKTEEKL
# Molecular target: T1, TRAF2, Q12933
# Test: median log2 fold change of GCK-ALFA target abundance (FLAG IP / Myc IP barcode read proportion) (log2 ratio); each designed protein is fused to an ALFA-tag nanobody in HEK293 cells to bring the named protein to FLAG-tagged glucokinase (GCK); Myc marks an untargeted standard; higher = target protein stabilised (more abundant)
# Settings: target protein: 3xFLAG-MCP-GCK-ALFA reporter; HEK293 landing pad (RPLP)
# How it was run: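 An ALFA-nanobody-fused binder library was recombined into HEK293 landing-pad cells and induced with 2 μg mL^−1 doxycycline. Cells were transfected with a plasmid expressing a FLAG-tagged target and a Myc-tagged standard. After 48 h, lysates underwent anti-FLAG and anti-Myc immunoprecipitation, and circular RNA barcodes were reverse transcribed, amplified and sequenced. Target abundance is the per-binder median log2 ratio of FLAG to Myc barcode read proportions. Barcodes needed ≥10^−7 proportion in both replicates, binders ≥3 barcodes per replicate, and a 10^−6 pseudocount was added; the two replicates were pooled.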
row,Binder,median log2 fold change
1,B1,-0.695
2,B2,0.0336
3,B3,0.287
4,B4,0.141
5,B5,-0.309
6,B6,0.299
7,B7,0.309
8,B8,-0.111
9,B9,-0.411
10,B10,0.213
11,B11,0.181
12,B12,0.309
13,B13,-0.389
14,B14,-0.41
15,B15,0.177
16,B16,-0.231
17,B17,0.244
18,B18,0.111
19,B19,0.274
20,B20,0.146
21,B21,0.214
22,B22,0.129
23,B23,-0.127
24,B24,0.427
25,B25,0.111
26,B26,0.293
27,B27,0.0394
28,B28,0.197
29,B29,0.265
